Source: US8648074B2, “Substituted octahydropyrrolo[1,2-a]pyrazine sulfonamides as calcium channel blockers” (AbbVie Inc., priority 2011, dated 2014)

target: human Cav2.2 (Homo sapiens, UniProt Q00975); experiment: In vitro assessment of calcium channel activity using FLIPR (Ca2+ influx in IMR32 cells); type: cell-based; details: IMR32 cells endogenously expressing human Cav2.2; Calcium 4 dye, 60 minute pre-incubation, 2 μM nifedipine, depolarized with 80 mM KCl; average of at least two runs unless marked *

Row | IC50 [µM] | SMILES
1 | 3.14 | O=S(=O)(c1c(F)cccc1F)N1CCN2C[C@H](Oc3cnc(C4CC4)cn3)C[C@H]2C1 [Example 122, (7R,8aS)-7-[(5-cyclopropylpyrazin-2-yl)oxy]-2-[(2,6-difluorophenyl)-sulfonyl]octahydropyrrolo[1,2-a]pyrazine]
2 | 3.13 | O=S(=O)(c1ccc(F)c(F)c1F)N1CCN2C[C@H](Oc3cnc(C4CC4)cn3)C[C@H]2C1 [Example 123, (7R,8aS)-7-[(5-cyclopropylpyrazin-2-yl)oxy]-2-[(2,3,4-trifluorophenyl)-sulfonyl]octahydropyrrolo[1,2-a]pyrazine]
3 | 3.05 | O=S(=O)(c1cc(Cl)ccc1F)N1CCN2C[C@H](Oc3cnc(C4CC4)cn3)C[C@H]2C1 [Example 124, (7R,8aS)-2-[(5-chloro-2-fluorophenyl)sulfonyl]-7-[(5-cyclopropylpyrazin-2-yl)oxy]octahydropyrrolo[1,2-a]pyrazine]
4 | 1.51 | Cc1ccc(S(=O)(=O)N2CCN3C[C@H](Oc4cnc(C5CC5)cn4)C[C@H]3C2)cc1F [Example 125, (7R,8aS)-7-[(5-cyclopropylpyrazin-2-yl)oxy]-2-[(3-fluoro-4-methylphenyl)-sulfonyl]octahydropyrrolo[1,2-a]pyrazine]
5 | 3.46 | O=S(=O)(c1cc(F)cc(F)c1)N1CCN2C[C@H](Oc3cnc(C4CC4)cn3)C[C@H]2C1 [Example 126, (7R,8aS)-7-[(5-cyclopropylpyrazin-2-yl)oxy]-2-[(3,5-difluorophenyl)-sulfonyl]octahydropyrrolo[1,2-a]pyrazine]
6 | 1.19 | Cc1cc(C)cc(S(=O)(=O)N2CCN3C[C@H](Oc4cnc(C5CC5)cn4)C[C@H]3C2)c1 [Example 127, (7R,8aS)-7-[(5-cyclopropylpyrazin-2-yl)oxy]-2-[(3,5-dimethylphenyl)-sulfonyl]octahydropyrrolo[1,2-a]pyrazine]
7 | 4.14 | O=S(=O)(c1ccc(Br)c(C(F)(F)F)c1)N1CCN2C[C@H](Oc3cnc(C4CC4)cn3)C[C@H]2C1 [Example 128, (7R,8aS)-2-{[4-bromo-3-(trifluoromethyl)phenyl]sulfonyl}-7-[(5-cyclopropylpyrazin-2-yl)oxy]octahydropyaolo[1,2-a]pyrazine]
8 | 0.89 | Cc1cc(F)ccc1S(=O)(=O)N1CCN2C[C@H](Oc3cnc(C4CC4)cn3)C[C@H]2C1 [Example 129, (7R,8aS)-7-[(5-cyclopropylpyrazin-2-yl)oxy]-2-[(4-fluoro-2-methylphenyl)-sulfonyl]octahydropyrrolo[1,2-a]pyrazine]
9 | 1.3 | O=S(=O)(c1ccc(Cl)cc1F)N1CCN2C[C@H](Oc3cnc(C4CC4)cn3)C[C@H]2C1 [Example 130, (7R,8aS)-2-[(4-chloro-2-fluorophenyl)sulfonyl]-7-[(5-cyclopropylpyrazin-2-yl)oxy]octahydropyrrolo[1,2-a]pyrazine]
10 | 3.94 | O=S(=O)(c1cc(F)ccc1F)N1CCN2C[C@H](Oc3cnc(C4CC4)cn3)C[C@H]2C1 [Example 131, (7R,8aS)-7-[(5-cyclopropylpyrazin-2-yl)oxy]-2-[(2,5-difluorophenyl)-sulfonyl]octahydropyrrolo[1,2-a]pyrazine]
11 | 2.4 | Cc1ccc(S(=O)(=O)N2CCN3C[C@H](Oc4cnc(C5CC5)cn4)C[C@H]3C2)cc1Cl [Example 132, (7R,8aS)-2-[(3-chloro-4-methylphenyl)sulfonyl]-7-[(5-cyclopropylpyrazin-2-yl)oxy]octahydropyrrolo[1,2-a]pyrazine]
12 | 1.93 | Cc1cc(S(=O)(=O)N2CCN3C[C@H](Oc4cnc(C5CC5)cn4)C[C@H]3C2)ccc1Br [Example 133, (7R,8aS)-2-[(4-bromo-3-methylphenyl)sulfonyl]-7-[(5-cyclopropylpyrazin-2-yl)oxy]octahydropyrrolo[1,2-a]pyrazine]
13 | 11.1 | O=S(=O)(c1cc(C(F)(F)F)ccc1Br)N1CCN2C[C@H](Oc3cnc(C4CC4)cn3)C[C@H]2C1 [Example 134, (7R,8aS)-2-{[2-bromo-5-(trifluoromethyl)phenyl]sulfonyl}-7-[(5-cyclopropylpyrazin-2-yl)oxy]octahydropyaolo[1,2-a]pyrazine]
14 | 1.75 | Cc1cc(C)c(S(=O)(=O)N2CCN3C[C@H](Oc4cnc(C5CC5)cn4)C[C@H]3C2)c(C)c1 [Example 135, (7R,8aS)-7-[(5-cyclopropylpyrazin-2-yl)oxy]-2-(mesitylsulfonyl)-octahydropyrrolo[1,2-a]pyrazine]
15 | 0.99 | O=S(=O)(c1ccc(-c2ccccc2)cc1)N1CCN2C[C@H](Oc3cnc(C4CC4)cn3)C[C@H]2C1 [Example 136, (7R,8aS)-2-(biphenyl-4-ylsulfonyl)-7-[(5-cyclopropylpyrazin-2-yl)oxy]-octahydropyrrolo[1,2-a]pyrazine]
16 | 0.91 | O=S(=O)(c1cccc(Br)c1)N1CCN2C[C@H](Oc3cnc(C4CC4)cn3)C[C@H]2C1 [Example 137, (7R,8aS)-2-[(3-bromophenyl)sulfonyl]-7-[(5-cyclopropylpyrazin-2-yl)oxy]-octahydropyrrolo[1,2-a]pyrazine]
17 | 0.99 | O=S(=O)(c1cc(C(F)(F)F)ccc1C(F)(F)F)N1CCN2C[C@H](Oc3cnc(C4CC4)cn3)C[C@H]2C1 [Example 138, (7R,8aS)-2-{[2,5-bis(trifluoromethyl)phenyl]sulfonyl}-7-[(5-cyclopropylpyrazin-2-yl)oxy]octahydropyrrolo[1,2-a]pyrazine]

Row | IC50 [µM] | SMILES
18 | 1.32 | Cc1ccc(F)cc1S(=O)(=O)N1CCN2C[C@H](Oc3cnc(C4CC4)cn3)C[C@H]2C1 [Example 139, (7R,8aS)-7-[(5-cyclopropylpyrazin-2-yl)oxy]-2-[(5-fluoro-2-methylphenyl)-sulfonyl]octahydropyrrolo[1,2-a]pyrazine]
19 | > 30 | O=S(=O)(c1cc(Cl)sc1Cl)N1CCN2C[C@H](Oc3cnc(C4CC4)cn3)C[C@H]2C1 [Example 140, (7R,8aS)-7-[(5-cyclopropylpyrazin-2-yl)oxy]-2-[(2,5-dichloro-3-thienyl)-sulfonyl]octahydropyrrolo[1,2-a]pyrazine]
20 | 1.99 | O=S(=O)(c1ccc(Cl)s1)N1CCN2C[C@H](Oc3cnc(C4CC4)cn3)C[C@H]2C1 [Example 141, (7R,8aS)-2-[(5-chloro-2-thienyl)sulfonyl]-7-[(5-cyclopropylpyrazin-2-yl)-oxy]octahydropyrrolo[1,2-a]pyrazine]
21 | 3.03 | O=S(=O)(c1ccc(Cl)cc1)N1CCN2C[C@H](Oc3cnc(C4CC4)cn3)C[C@H]2C1 [Example 142, (7R,8aS)-2-[(4-chlorophenyl)sulfonyl]-7-[(5-cyclopropylpyrazin-2-yl)oxy]-octahydropyrrolo[1,2-a]pyrazine]
22 | 2.84 | O=S(=O)(c1ccc(F)cc1)N1CCN2C[C@H](Oc3cnc(C4CC4)cn3)C[C@H]2C1 [Example 143, (7R,8aS)-7-[(5-cyclopropylpyrazin-2-yl)oxy]-2-[(4-fluorophenyl)-sulfonyl]octahydropyrrolo[1,2-a]pyrazine]
23 | 3.85 | O=S(=O)(c1cccc(F)c1)N1CCN2C[C@H](Oc3cnc(C4CC4)cn3)C[C@H]2C1 [Example 144, (7R,8aS)-7-[(5-cyclopropylpyrazin-2-yl)oxy]-2-[(3-fluorophenyl)sulfonyl]-octahydropyrrolo[1,2-a]pyrazine]
24 | 3.12 | Cc1cccc(S(=O)(=O)N2CCN3C[C@H](Oc4cnc(C5CC5)cn4)C[C@H]3C2)c1 [Example 145, (7R,8aS)-7-[(5-cyclopropylpyrazin-2-yl)oxy]-2-[(3-methylphenyl)-sulfonyl]octahydropyrrolo[1,2-a]pyrazine]
25 | 4.35 | N#Cc1ccccc1S(=O)(=O)N1CCN2C[C@H](Oc3cnc(C4CC4)cn3)C[C@H]2C1 [Example 146, 2-{[(7R,8aS)-7-[(5-cyclopropylpyrazin-2-yl)oxy]hexahydropyrrolo[1,2-a]-pyrazin-2(1H)-yl]sulfonyl}benzonitrile]
26 | 6.15 | COc1ccc(S(=O)(=O)N2CCN3C[C@H](Oc4cnc(C5CC5)cn4)C[C@H]3C2)cc1 [Example 147, (7R,8aS)-7-[(5-cyclopropylpyrazin-2-yl)oxy]-2-[(4-methoxyphenyl)-sulfonyl]octahydropyrrolo[1,2-a]pyrazine]
27 | 1.75 | O=S(=O)(c1cc(Cl)cc(Cl)c1)N1CCN2C[C@H](Oc3cnc(C4CC4)cn3)C[C@H]2C1 [Example 148, (7R,8aS)-7-[(5-cyclopropylpyrazin-2-yl)oxy]-2-[(3,5-dichlorophenyl)-sulfonyl]octahydropyrrolo[1,2-a]pyrazine]
28 | 0.43 | O=S(=O)(c1cccc(Cl)c1Cl)N1CCN2C[C@H](Oc3cnc(C4CC4)cn3)C[C@H]2C1 [Example 149, (7R,8aS)-7-[(5-cyclopropylpyrazin-2-yl)oxy]-2-[(2,3-dichlorophenyl)-sulfonyl]octahydropyrrolo[1,2-a]pyrazine]
29 | 1.41 | O=S(=O)(c1ccc(Br)cc1)N1CCN2C[C@H](Oc3cnc(C4CC4)cn3)C[C@H]2C1 [Example 150, (7R,8aS)-2-[(4-bromophenyl)sulfonyl]-7-[(5-cyclopropylpyrazin-2-yl)oxy]-octahydropyrrolo[1,2-a]pyrazine]
30 | 1.34 | O=S(=O)(c1ccc(Cl)c(Cl)c1)N1CCN2C[C@H](Oc3cnc(C4CC4)cn3)C[C@H]2C1 [Example 151, (7R,8aS)-7-[(5-cyclopropylpyrazin-2-yl)oxy]-2-[(3,4-dichlorophenyl)-sulfonyl]octahydropyrrolo[1,2-a]pyrazine]
31 | 1.15 | O=S(=O)(c1cc(Cl)ccc1Cl)N1CCN2C[C@H](Oc3cnc(C4CC4)cn3)C[C@H]2C1 [Example 152, (7R,8aS)-7-[(5-cyclopropylpyrazin-2-yl)oxy]-2-[(2,5-dichlorophenyl)-sulfonyl]octahydropyrrolo[1,2-a]pyrazine]
32 | 5.5 | N#Cc1ccc(S(=O)(=O)N2CCN3C[C@H](Oc4cnc(C5CC5)cn4)C[C@H]3C2)cc1 [Example 153, 4-{[(7R,8aS)-7-[(5-cyclopropylpyrazin-2-yl)oxy]hexahydropyrrolo[1,2-a]-pyrazin-2(1H)-yl]sulfonyl}benzonitrile]
33 | 1.26 | O=S(=O)(c1ccc(Cl)cc1Cl)N1CCN2C[C@H](Oc3cnc(C4CC4)cn3)C[C@H]2C1 [Example 154, (7R,8aS)-7-[(5-cyclopropylpyrazin-2-yl)oxy]-2-[(2,4-dichlorophenyl)-sulfonyl]octahydropyrrolo[1,2-a]pyrazine]
